Laboratory results as given in the supplement of paper PMC8285479.
Counter-ions that a name gives are not always drawn. ± gives the standard deviation of the averaged measurements. In all, about 1,900 compounds were measured (“normalised cell viability (NPI; 0 = phenylarsine oxide control, 1 = DMSO control)”: median about 1, lowest 2% from about 0.039 on). The list shows a part of the results.

Tested on: NCI-H1944
Experiment: normalised cell viability (NPI; 0 = phenylarsine oxide control, 1 = DMSO control) (fraction of DMSO control); NCI-H1944 is a non-small cell lung cancer line; higher = more viable cells (less compound toxicity)
Conditions: 6 days
[1] = glucocorticoid arm: hydrocortisone 2.75 uM co-treatment, compound 1 µM
[2] = glucocorticoid arm: hydrocortisone 2.75 uM co-treatment, compound 5 µM
[3] = glucocorticoid arm: hydrocortisone 2.75 uM pre-treated 2 days and continued, compound 1 µM
[4] = glucocorticoid arm: hydrocortisone 2.75 uM pre-treated 2 days and continued, compound 5 µM
[5] = glucocorticoid arm: vehicle, compound 1 µM
[6] = glucocorticoid arm: vehicle, compound 5 µM
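Further: CTB read-out in 384-well plates, mean of triplicate wells, normalised per plate against 1 µM phenylarsine oxide and 0.1% DMSO, compounds added 24 h after seeding.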

Structure (SMILES): CCN1C(=CC(C)=O)Sc2ccc(OC)cc21
- normalised cell viability [1]: 0.982 ± 0.01
- normalised cell viability [2]: 0.823 ± 0.013
- normalised cell viability [3]: 0.994 ± 0.017
- normalised cell viability [4]: 0.839 ± 0.021
- normalised cell viability [5]: 1.01 ± 0.01
- normalised cell viability [6]: 0.983 ± 0.017

Structure (SMILES): Cc1cnc(C(=O)NCCc2ccc(S(=O)(=O)NC(=O)NC3CCCCC3)cc2)cn1 [Glipizide]
- normalised cell viability [1]: 1.01 ± 0.018
- normalised cell viability [2]: 1.02 ± 0.01
- normalised cell viability [3]: 1.01 ± 0.011
- normalised cell viability [4]: 1.03 ± 0.02
- normalised cell viability [5]: 1.01 ± 0.013
- normalised cell viability [6]: 1.006 ± 0.0075

Structure (SMILES): CC(C)NC[C@H](O)COc1cccc2[nH]ccc12 [S(-)-Pindolol]
- normalised cell viability [1]: 0.984 ± 0.023
- normalised cell viability [2]: 0.984 ± 0.023
- normalised cell viability [3]: 0.9967 ± 0.0035
- normalised cell viability [4]: 0.949 ± 0.022
- normalised cell viability [5]: 0.9777 ± 0.0015
- normalised cell viability [6]: 0.9807 ± 0.0038

Structure (SMILES): COc1ccccc1N1CCN(CCCCNC(=O)c2ccc3ccccc3c2)CC1
- normalised cell viability [1]: 0.9887 ± 0.0098
- normalised cell viability [2]: 0.984 ± 0.026
- normalised cell viability [3]: 0.998 ± 0.014
- normalised cell viability [4]: 0.988 ± 0.032
- normalised cell viability [5]: 0.9913 ± 0.0029
- normalised cell viability [6]: 0.961 ± 0.033

Structure (SMILES): Cn1cc(-c2[nH]c3cc(NC(=O)[C@H](N)C4CCCCC4)cc4c3c2C=NNC4=O)cn1
- normalised cell viability [1]: 0.76 ± 0.008
- normalised cell viability [2]: 0.503 ± 0.039
- normalised cell viability [3]: 0.9733 ± 0.0038
- normalised cell viability [4]: 0.848 ± 0.026
- normalised cell viability [5]: 0.441 ± 0.069
- normalised cell viability [6]: 0.208 ± 0.0058

Structure (SMILES): CC1(C)CNc2cc(NC(=O)c3cccnc3NCc3ccncc3)ccc21 [Motesanib Diphosphate]
- normalised cell viability [1]: 1.02 ± 0.011
- normalised cell viability [2]: 1 ± 0.031
- normalised cell viability [3]: 1 ± 0.012
- normalised cell viability [4]: 0.992 ± 0.026
- normalised cell viability [5]: 1.001 ± 0.0076
- normalised cell viability [6]: 1.002 ± 0.0076

Structure (SMILES): COCCOc1ccc2c(c1)ncn2-c1ccc2cccc(N3CCC(N)CC3)c2n1
- normalised cell viability [1]: 1.103 ± 0.011
- normalised cell viability [2]: 1.04 ± 0.017
- normalised cell viability [3]: 1.07 ± 0.011
- normalised cell viability [4]: 1.11 ± 0.023
- normalised cell viability [5]: 0.9803 ± 0.0067
- normalised cell viability [6]: 0.426 ± 0.044

Structure (SMILES): COC(=O)C1=C(C)NC(C)=C(C(=O)OCCN(C)Cc2ccccc2)C1c1cccc([N+](=O)[O-])c1 (stereo unspecified) [Nicardipine hydrochloride]
- normalised cell viability [1]: 1.013 ± 0.0058
- normalised cell viability [2]: 0.985 ± 0.022
- normalised cell viability [3]: 1.006 ± 0.0075
- normalised cell viability [4]: 1.07 ± 0.081
- normalised cell viability [5]: 1.001 ± 0.0081
- normalised cell viability [6]: 1.02 ± 0.015

Structure (SMILES): Cc1nc(C#Cc2ccnc(Cl)c2)c(C)n1-c1ccc(OC(F)(F)F)cc1
- normalised cell viability [1]: 0.993 ± 0.021
- normalised cell viability [2]: 0.992 ± 0.01
- normalised cell viability [3]: 0.983 ± 0.015
- normalised cell viability [4]: 0.9747 ± 0.004
- normalised cell viability [5]: 1 ± 0.017
- normalised cell viability [6]: 1 ± 0.014

Structure (SMILES): Cc1ccccc1CNc1ncnc2c1ncn2[C@@H]1O[C@H](CO)[C@@H](O)[C@H]1O [Metrifudil]
- normalised cell viability [1]: 1.01 ± 0.011
- normalised cell viability [2]: 1.03 ± 0.017
- normalised cell viability [3]: 1.02
- normalised cell viability [4]: 1.04 ± 0.071
- normalised cell viability [5]: 0.996 ± 0.004
- normalised cell viability [6]: 1.001 ± 0.0085

Structure (SMILES): OC[C@H]1O[C@@H](c2ccc(Cl)c(Cc3ccc(O[C@H]4CCOC4)cc3)c2)[C@H](O)[C@@H](O)[C@@H]1O
- normalised cell viability [1]: 1.033 ± 0.0058
- normalised cell viability [2]: 1.01 ± 0.016
- normalised cell viability [3]: 1.027 ± 0.0058
- normalised cell viability [4]: 1.03 ± 0.023
- normalised cell viability [5]: 1.01 ± 0.01
- normalised cell viability [6]: 0.9943 ± 0.0074

Structure (SMILES): CC(C)NCC(O)c1ccc(O)c(O)c1 (single isomer, unassigned; (-)) [(-)-Isoproterenol hydrochloride]
- normalised cell viability [1]: 0.9853 ± 0.0075
- normalised cell viability [2]: 0.97 ± 0.038
- normalised cell viability [3]: 0.996 ± 0.0046
- normalised cell viability [4]: 0.998 ± 0.097
- normalised cell viability [5]: 0.9933 ± 0.0025
- normalised cell viability [6]: 0.992 ± 0.008

Structure (SMILES): NCCNS(=O)(=O)c1cccc2c(Cl)cccc12 [A3 hydrochloride]
- normalised cell viability [1]: 1.003 ± 0.0058
- normalised cell viability [2]: 0.992 ± 0.017
- normalised cell viability [3]: 0.897 ± 0.18
- normalised cell viability [4]: 1.01 ± 0.018
- normalised cell viability [5]: 0.998 ± 0.002
- normalised cell viability [6]: 0.997 ± 0.0027

Structure (SMILES): Cc1ccccc1C(OCCN(C)C)c1ccccc1 (stereo unspecified) [Orphenadrine hydrochloride]
- normalised cell viability [1]: 1.004 ± 0.01
- normalised cell viability [2]: 1.027 ± 0.0058
- normalised cell viability [3]: 1.007 ± 0.0058
- normalised cell viability [4]: 1.06 ± 0.084
- normalised cell viability [5]: 0.998 ± 0.0017
- normalised cell viability [6]: 1.006 ± 0.0075

Structure (SMILES): Cc1ccccc1C(OCCN(C)C)c1ccccc1 (stereo unspecified) [Orphenadrine Citrate]
- normalised cell viability [1]: 1.01 ± 0.015
- normalised cell viability [2]: 1.017 ± 0.0058
- normalised cell viability [3]: 1.02 ± 0.021
- normalised cell viability [4]: 1.04 ± 0.015
- normalised cell viability [5]: 1.007 ± 0.0058
- normalised cell viability [6]: 1.001 ± 0.0076

Structure (SMILES): O=C1CCc2ccc(OCCCCN3CCN(c4cccc(Cl)c4Cl)CC3)cc2N1 [Aripiprazole]
- normalised cell viability [1]: 1.03 ± 0.01
- normalised cell viability [2]: 1.01 ± 0.011
- normalised cell viability [3]: 1.03 ± 0.015
- normalised cell viability [4]: 1.03 ± 0.015
- normalised cell viability [5]: 1.003 ± 0.0058
- normalised cell viability [6]: 0.9943 ± 0.0042
